For one data set, the target named is recombinant α-thrombin (Homo sapiens, UniProt P00734). The following applies: for loss of inhibitory activity after 60 min of incubation with thrombin: 24° C., 30-fold excess of inhibitor (100 nM, thrombin […]).
Data set [1] deals with plasmin, TPA, urokinase, APC, FXIIa, FXIa, FXa, FIXa, FVIIa, kallikrein, chymotrypsin and trypsin.
A further data set concerns the target thrombin (Homo sapiens, UniProt P00734).
For data set [2], the target named is human plasma derived thrombin (Homo sapiens, UniProt P00734). Put plainly: biochemical. The conditions noted are these: IC50 (nM).

Consider `CC[C@H](C)[C@H](NC(=O)[C@H](C)NC(=O)[C@H](CCC(=O)O)NC(=O)[C@H](Cc1ccccc1)NC(=O)[C@H](CC(=O)O)NC(=O)[C@H](Cc1ccccc1)NC(=O)[C@@H]1CCCN1C(=O)[C@@H]1CCCN1C(=O)[C@H](C)NC(=O)[C@@H](NC(=O)[C@H](CCCCN)NC(=O)[C@H](Cc1c[nH]cn1)NC(=O)[C@H](CCSC)NC(=O)[C@H](CCCCN)NC(=O)[C@@H]1CCCN1C(=O)[C@@H](N)CCC(=O)O)[C@@H](C)O)C(=O)N1CCC[C@H]1C(=O)N[C@@H](CCC(=O)O)C(=O)N[C@@H](CCC(=O)O)C(=O)N[C@@H](Cc1ccc(O)cc1)C(=O)N[C@@H](CC(C)C)C(=O)N[C@@H](CC(=O)O)C(=O)N[C@@H](CC(=O)O)C(=O)N[C@@H](CCC(=O)O)C(=O)N[C@@H](CO)C(=O)O` [EP25], for which, at recombinant α-thrombin, the “pre-incubation after which steady state equilibrium inhibition was achieved” value is around 10 min and the “loss of inhibitory activity after 60 min of incubation with thrombin” value is recorded as “no loss of inhibitory activity”.
With `CC[C@H](C)[C@H](NC(=O)[C@H](C)NC(=O)[C@H](CCC(=O)O)NC(=O)[C@H](Cc1ccccc1)NC(=O)[C@H](CC(=O)O)NC(=O)[C@H](Cc1ccccc1)NC(=O)[C@@H]1CCCN1C(=O)[C@@H]1CCCN1C(=O)[C@H](C)NC(=O)[C@@H](NC(=O)[C@H](CCCCN)NC(=O)[C@H](Cc1c[nH]cn1)NC(=O)[C@H](CCSC)NC(=O)[C@H](CCCCN)NC(=O)[C@@H]1CCCN1C(=O)[C@H](CCC(=O)O)NC(=O)[C@H](C)NC(=O)[C@@H](NC(=O)[C@H](CC(=O)O)NC(=O)CNC(=O)[C@H](CCC(N)=O)NC(=O)[C@H](CC(=O)O)NC(=O)[C@@H](N)CO)C(C)C)[C@@H](C)O)C(=O)N1CCC[C@H]1C(=O)N[C@@H](CCC(=O)O)C(=O)N[C@@H](CCC(=O)O)C(=O)N[C@@H](Cc1ccc(O)cc1)C(=O)N[C@@H](CC(C)C)C(=O)N[C@@H](CC(=O)O)C(=O)N[C@@H](CC(=O)O)C(=O)N[C@@H](CCC(=O)O)C(=O)N[C@@H](CO)C(=O)O` [s-variegin], the “loss of inhibitory activity after 60 min of incubation with thrombin” value at recombinant α-thrombin is “no loss of inhibitory activity”. Besides, the “inhibition of serine proteases other than thrombin” value in data set [1] (1 μM of s-variegin) was at most 5%. In data set [1] (~3.3 nM against thrombin vs 100 μM), the “concentration for similar ~30% inhibition of thrombin lower than for the most susceptible other proteases” value is “at least 4 orders of magnitude”. For the same compound, the cleavage by thrombin entry at thrombin (37° C., 180 min incubation) is “almost complete”. Also, at thrombin (60 min of incubation, 24° C., 30-fold excess of s-variegin (150 μM, thrombin 5 μM)), the “s-variegin cleaved by thrombin” value was around 30%.
As for `CC[C@H](C)[C@H](NC(=O)[C@H](C)NC(=O)[C@H](CCC(=O)O)NC(=O)[C@H](Cc1ccccc1)NC(=O)[C@H](CC(=O)O)NC(=O)[C@H](Cc1ccccc1)NC(=O)[C@@H]1CCCN1C(=O)[C@@H]1CCCN1C(=O)[C@H](C)NC(=O)[C@@H](NC(=O)[C@H](CCCCN)NC(=O)[C@H](Cc1c[nH]cn1)NC(=O)[C@@H](N)CCSC)[C@@H](C)O)C(=O)N1CCC[C@H]1C(=O)N[C@@H](CCC(=O)O)C(=O)N[C@@H](CCC(=O)O)C(=O)N[C@@H](Cc1ccc(O)cc1)C(=O)N[C@@H](CC(C)C)C(=O)N[C@@H](CC(=O)O)C(=O)N[C@@H](CC(=O)O)C(=O)N[C@@H](CCC(=O)O)C(=O)N[C@@H](CO)C(=O)O` [MH22], the IC50 in data set [2] (pre-incubation time 30 min) was found to be 14.9 ± 0.77 nM; in data set [2] (pre-incubation time 120 min (1 mg/ml BSA)), 14.6 ± 2.32 nM; in data set [2] (pre-incubation time […]), 34.5 ± 4.59 nM.

These data come from US20130183237A1 (priority 2007, published 2013).
